Experimental data reported in PubChem BioAssay AID624296 (National Center for Advancing Translational Sciences (NCATS), 2012).
Screen size: about 350,000 compounds; about 9,900 (2.8%) were called active. The shares of active, inactive and inconclusive entries below differ from those in the screen. The call rests on the fitted dose curve; in most records, active means well fitted activation curve with a large enough effect; inconclusive means small, poorly fitted or top-dose-only effect; inactive means no such curve, though single readings can be large or run the other way. Potencies of inconclusive entries are left out as doubtful fits.

Assay: A quantitative high throughput screen for small molecules that induce DNA re-replication in MCF 10a normal breast cells. Further: nearly all actives have a fitted effect of over 50% in size.
Conditions: MCF 10A DNA re-replication, Hoechst nuclear intensity, 48 h; series mostly up to 46.1 µM
Potency means the concentration at half of the fitted maximal effect; tags describe the fitted curve by direction and shape.

| SMILES | Potency |
| --- | --- |
| CCc1nc(SCC(=O)NNC(=O)c2ccc(C)cc2)c2ccccc2n1 | inconclusive [activator, single point] |
| COC(=O)C1CC(c2ccc(Cl)cc2)=NO1 (stereo not given) | inactive |
| Cc1ccccc1N(C)C(=O)C1CCCN(c2ncnc3c2nc2n3CCCCC2)C1 (stereo not given) | inactive |
| CCOC(=O)c1ccc(NC(=S)Nc2ccccc2)cc1 | inactive |
| OCc1nc2ccccc2n1CCc1ccccc1 | inconclusive [activator, partial curve, poor fit] |
| Cc1cc(/C=N/NC(=O)c2ccsc2)c(C)n1-c1cnccn1 | inconclusive [activator, single point] |
| COc1ccccc1N1C(=O)C2C(C(=O)c3ccccc3)=NN(c3ccc(Br)cc3)C2C1=O (stereo not given) | inconclusive [activator, partial curve] |
| COc1ccc(NS(=O)(=O)c2cc(-c3cnc(C4CC4)o3)ccc2C)cc1 | active: 5.8 µM |
| O=C(Nc1ccccc1)C1=C[C@@H](c2ccc(C(F)(F)F)cc2)C[C@@H](OCCCCO)O1 | inconclusive [activator, single point] |
| COC(=O)c1cccc(NC(=O)c2ccc(OC)c(Cl)c2)c1 | inactive |
| CSc1ccc(C#N)cc1NC(=O)c1ccc(Cl)nc1 | inconclusive [activator, partial curve] |
| CCCNC(=O)c1cc(-c2ccc(OC)cc2)n(CCCOC)c1C | inactive |
| Cc1ccc(Oc2ncccc2/C=N/OCc2ccc(Cl)c(Cl)c2)cc1 | inconclusive [activator, single point] |
| Cc1cccc(NC(=S)N/N=C(\c2ccccc2)C(C)C)c1 | inactive |
| O=C(Nc1cccc(Cl)c1)C1=Cc2cc(Cl)ccc2OC1 | active: 13 µM |
| CCn1c(SCC(=O)Nc2ccc(OC)cc2OC)nc2nc3c(cc2c1=O)COC(C)(C)C3 | inactive |
| O=C(CSc1nnc(SCc2ccccc2)s1)N/N=C/C=C\c1ccco1 | inconclusive [activator, single point] |
| COCC1CCCN(C(=O)c2cc(COc3cccc4cccnc34)on2)C1 (stereo not given) | inactive |
| COc1ccc(S(=O)(=O)Nc2c(O)ccc3ccccc23)cc1OC | active: 16.4 µM |
| Cc1cccc(NC(=O)/C(C#N)=C/c2cccc([N+](=O)[O-])c2)n1 | active: 20.6 µM |
| Cc1nc2ccccc2n1CC(=O)OCC(=O)NC1CC1 | inactive |
| O=C1OCCN1C(=O)[C@H]1[C@H](c2ccc(Cl)cc2)C(c2ccccc2)=NN1c1ccc(Br)cc1 | inconclusive [activator, partial curve, poor fit] |
| CCC(CCCO)CCC[C@H](C)CCC1OCCO1 (stereo not given in full) | inconclusive [activator, single point] |
| COc1ccc(CCNC(=S)Nc2ccc(C(C)C)cc2)cc1 | inconclusive [activator, single point] |
| CCCCN(C(=O)CCC(=O)O)C1CC(=O)N(c2ccc(OCCC)cc2)C1=O (stereo not given) | inactive |

| SMILES | Potency |
| --- | --- |
| COc1ccc(/C=N/NC(=O)CCSc2nc3ccccc3s2)cc1 | inconclusive [activator, full curve, poor fit] |
| CCN(CC)C1=N/C(=C\c2ccc(OC)cc2)C(=O)N1c1ccccc1 | active: 18.4 µM |
| Cc1ccc(S(=O)(=O)C2(C(=O)N3CCN(c4ccccc4F)CC3)CC2)cc1 | inactive |
| Cc1ccc(S(=O)(=O)N2CCN(CC(=O)N/N=C/c3ccccc3OCC(=O)O)CC2)cc1 | inactive |
| O=C(COC(=O)Cc1ccc(-c2ccccc2)cc1)NCc1ccc(F)cc1 | inconclusive [activator, single point] |
| O=S1(=O)N=C(Nc2ccc(N3CCOCC3)c(Cl)c2)c2ccccc21 | inconclusive [activator, single point] |
| Cc1ccc2c(c1)N(S(=O)(=O)c1cc(-c3cc(C)no3)ccc1C)CCO2 | inconclusive [activator, partial curve, poor fit] |
| COc1ccc(CCN=C2SCC(=O)N2Cc2ccccc2)cc1OC | inconclusive [activator, single point] |
| CCN1C(=O)N/C(=C/c2cc(C)n(Cc3ccccc3)c2C)C1=O | inconclusive [activator, single point] |
| COc1ccccc1NS(=O)(=O)c1cc(NC(=S)NCCN2CCOCC2)ccc1N1CCOCC1 | inactive |
| CC(=O)C1=C(O)CC(c2ccccc2)CC1=NCCc1ccccc1 (stereo not given) | inactive |
| COc1cc(NS(=O)(=O)c2ccc(NC(=O)c3cccnc3)cc2)ncn1 | inactive |
| CC(C)(C)CC(C)(C)NC1=CC(=O)OC12CCCCC2 | inconclusive [activator, single point] |
| COc1cccc(/C=N/NC(=O)CCn2cnc3ccccc32)c1 | inconclusive [activator, full curve, poor fit] |
| O=C(Nc1ccc(O)c(-c2nc3ccccc3s2)c1)c1cc(=O)c2ccccc2o1 | inconclusive [activator, partial curve, poor fit] |
| N=C1SCC(=O)N1c1ncc(Cc2ccc(F)cc2)s1 | inconclusive [activator, full curve, poor fit] |
| COc1ccc(C2=CC(=O)C[C@H](c3ccc(F)cc3)C2)cc1F | inconclusive [activator, full curve, poor fit] |
| NC(=O)NN=C1CC2CC1C1C=CCC21 (stereo not given) | inactive |
| O=C(Nc1cccc(S(=O)(=O)N2CCOCC2)c1)C1CC(=O)N(c2ccc3c(c2)OCCO3)C1 (stereo not given) | inactive |
| Cc1cccc(NC(=O)/C=C/c2ccc([N+](=O)[O-])s2)c1 | active: 2.31 µM |
| COc1ccc(CN(C)C(C)C(=O)NC2CCCc3ccccc32)cc1 (stereo not given) | inconclusive [activator, single point] |
| O=C(COC(=O)C12CC3CC(CC(Br)(C3)C1)C2)Nc1ccc2[nH]c(=O)[nH]c2c1 | inactive |
| CC1(C)CC(=O)C(C(c2cc([N+](=O)[O-])ccc2Cl)C2C(=O)CC(C)(C)CC2=O)C(=O)C1 | inconclusive [activator, single point] |
| COc1cccc2c(Cl)c(CC=C(Cl)Cl)c(C)nc12 | inactive |
| COc1ccc(NC(=O)c2cccs2)cn1 | inactive |

| SMILES | Potency |
| --- | --- |
| COc1ccccc1-n1c2nc3ccccc3nc2c2c(=O)n(-c3cc(C)cc(C)c3)cnc21 | active: 23.1 µM |
| O=C(NC1=NCCS1)c1ccccc1OCc1ccccc1Cl | inactive |
| Cc1ccc(CN(Cc2ccco2)C(=O)c2ccco2)cc1 | inactive |
| COc1ccc(-c2cc(C(=O)N(C)Cc3ccccc3F)c3ccccc3n2)cc1OC | inconclusive [activator, single point] |
| CCCc1ccc(-c2cc(C(=O)NN3CCOCC3)c3ccccc3n2)cc1 | inactive |
| O=C(OCc1ccco1)c1cccnc1 | active: 13 µM |
| O=C(CN1C(=O)/C(=C/c2ccco2)SC1=S)Nc1ccc(C(=O)O)c(O)c1 | inconclusive [activator, single point] |
| O=C(COC(=O)c1ccccc1Nc1ccc(SC(F)F)cc1)NCc1ccco1 | inconclusive [activator, partial curve, poor fit] |
| O=C(/C=C/c1ccccc1)c1ccc2c3c(cccc13)CC2 | active: 18.4 µM |
| CCOC(=O)C(=O)N(Nc1ccccc1C)c1ccccc1C | inactive |
| O=C(CNC(=O)N1CC(=O)Nc2ccccc21)Nc1ccc(F)c(Cl)c1 | inactive |
| O=C(Nc1cccc(S(=O)(=O)N2CCCCC2)c1)c1cncc(Br)c1 | inconclusive [activator, single point] |
| COC(=O)[C@]1(Cc2ccccc2)N[C@H](c2ccc(-c3ccc4c(c3)OCO4)cc2)[C@@H]2C(=O)N(C)C(=O)[C@@H]21 | inconclusive [activator, partial curve] |
| COc1ccccc1C(C(=O)NCc1ccccc1)N(C(=O)c1csnn1)C1CC1 (stereo not given) | inconclusive [activator, single point] |
| O=C(Nc1ccc(Cl)cc1)c1cc(S(=O)(=O)Nc2ccccn2)ccc1Cl | inactive |
| CC(C)c1ccc(S(=O)(=O)N2CCC(C(=O)N3CCN(c4cccc(Cl)c4)CC3)CC2)cc1 | inconclusive [activator, full curve] |
| COc1ccc(NC(=O)C(=O)N/N=C(\C)CC(=O)Nc2ccccn2)c(OC)c1 | inconclusive [activator, single point] |
| Cc1ccc(/C=C/C(=O)c2ccc([N+](=O)[O-])o2)cc1 | active: 3.26 µM |
| CCc1nccn1-c1cc(C(C)(C)C)nc2c(-c3ccc(Cl)cc3)cnn12 | inconclusive [activator, single point] |
| Cc1cc(-c2cccs2)c2c(N)c(C(=O)c3ccc4c(c3)OCO4)sc2n1 | active: 14.6 µM |
| CCCCN(C)/C=N/c1c(C#N)cnn1-c1ccc(C)cc1 | inconclusive [activator, full curve, poor fit] |
| Cc1ccc(NS(=O)(=O)c2cccc(C(=O)NCCc3c[nH]c4ccccc34)c2)c(C)c1 | inconclusive [activator, single point] |
| CCC(=O)NC(c1ccc(Cl)cc1Cl)c1ccc2cccnc2c1O (stereo not given) | inconclusive [activator, single point] |
| Cc1ccc(C(=O)N2CCCCCC2)cc1S(=O)(=O)Nc1ccccc1 | inactive |
| Clc1ccc(OCCn2cnc3ccccc32)c(Cl)c1 | inactive |
